Test results from PubChem BioAssay AID1030 (National Center for Advancing Translational Sciences (NCATS), 2008).
Hit rate of the full screen: of about 220,000 compounds, about 16,000 (7.3%) were called active. Inconclusive results, whose numbers are uncertain, are shown with a selection of clear calls. Calls come from the whole dose curve; as a rule, active = well fitted inhibition curve with a large enough effect (not every such curve was filed as active); inconclusive = small, poorly fitted or top-dose-only effect, or another doubt; inactive = no such curve, though single readings can be large or run the other way. Potencies of inconclusive entries are doubtful fits and often do not repeat.

Target: Aldehyde dehydrogenase 1A1 (Homo sapiens) (UniProt P00352)
Experiment: qHTS Assay for Inhibitors of Aldehyde Dehydrogenase 1 (ALDH1A1);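 for activity, negative = inhibition: plate controls were no enzyme wells and a reference inhibitor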
Conditions: Purified ALDH1A1, NADH fluorescence, propionaldehyde substrate; series mostly up to 75.3 µM; activity, negative = inhibition: at the top concentration
Potency is the fitted concentration of half-maximal effect; tags give direction and shape of the fitted curve.

Chain of UniProt P00352 (P00352 whole entry, looked up): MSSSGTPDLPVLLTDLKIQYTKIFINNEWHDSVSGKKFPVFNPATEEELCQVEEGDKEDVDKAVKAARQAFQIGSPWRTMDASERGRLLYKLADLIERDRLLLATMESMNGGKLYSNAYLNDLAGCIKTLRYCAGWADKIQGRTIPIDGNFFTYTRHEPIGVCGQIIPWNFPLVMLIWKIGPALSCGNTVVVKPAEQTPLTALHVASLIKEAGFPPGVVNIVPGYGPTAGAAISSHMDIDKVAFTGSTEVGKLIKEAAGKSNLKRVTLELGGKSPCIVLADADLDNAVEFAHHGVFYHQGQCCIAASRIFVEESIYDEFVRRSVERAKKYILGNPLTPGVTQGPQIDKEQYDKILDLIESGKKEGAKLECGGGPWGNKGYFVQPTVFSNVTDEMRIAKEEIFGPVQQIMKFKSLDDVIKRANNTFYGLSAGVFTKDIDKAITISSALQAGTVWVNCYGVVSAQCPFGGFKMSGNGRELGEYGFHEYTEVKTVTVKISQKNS

Potency, inactive:
CN(C)CCCN1c2ccccc2Sc2ccc(Cl)cc21

Potency, inconclusive:
CN(Cc1ccccc1)C(=O)C1CCCN1S(=O)(=O)c1ccc2c(c1)n(C)c(=O)c(=O)n2C (centres undefined) 35.5 µM [inhibitor, single point]
CC(Nc1oc(-c2ccco2)nc1C#N)c1ccccc1 (centres undefined) 25.1 µM [inhibitor, partial curve]
COc1ccccc1-c1cc2ccccc2[nH]1 35.5 µM [inhibitor, single point]
CC(C)(C)n1nnnc1CN1C2CCC1CC(NC(=O)Nc1ccccc1)C2 (centres undefined) 28.2 µM [inhibitor, partial curve]
C=CCn1c(CCC(O)CCCCC)n[nH]c1=S (centres undefined) 39.8 µM [inhibitor, single point]
CCOc1ccc(CCNC(=O)C2CCCN(c3nn4c(=O)cc(C)nc4s3)C2)cc1 (centres undefined) 39.8 µM [inhibitor, single point]
CN(C)c1ccnc2sc(C(=O)NCc3ccccc3)c(N)c12 14.1 µM [inhibitor, partial curve]
Cc1ccc(C(=O)c2cn[nH]c2-c2ccccc2O)cc1 39.8 µM [inhibitor, single point]
Cc1cc(OCCCN2CCN(Cc3ccccc3)CC2)ccc1[N+](=O)[O-] 25.1 µM [inhibitor, single point]
COc1cccc(C(=O)OCC(=O)Nc2ccccc2N2CCOCC2)c1 20 µM [inhibitor, single point]
CC(=O)c1ccc2c(c1)C1C=CCC1C(C(=O)O)N2 (centres undefined) 17.8 µM [inhibitor, partial curve, poor fit]
CCOC(=O)NN1C(=O)c2ccccc2NC1c1ccccc1O (centres undefined) 25.1 µM [inhibitor, partial curve]
CC1CC(C)(C)NC(=S)N1CCC(=O)N1CCc2ccccc21 (centres undefined) 39.8 µM [inhibitor, single point]
COC(=O)CCC/C=C1/SCC(NC(=O)c2ccccc2)C1O (centres undefined) 22.4 µM [inhibitor, single point]
Nc1nc(SCC(=O)N2CCc3ccccc32)[nH]c(=O)c1-c1ccccc1 25.1 µM [inhibitor, single point]
CN1CCc2c(sc3c2c(=O)n(-c2ccc(Cl)cc2)c2nncn32)C1 44.7 µM [inhibitor, single point]
O=c1[nH]c2ccccc2n2c(-c3ccccc3)nnc12 10 µM [inhibitor, partial curve]
CC(=O)Nc1ccc(S(=O)(=O)NC2(C(F)(F)F)C(=O)NC(C)=C2C#N)cc1 (centres undefined) 39.8 µM [inhibitor, single point]
O=C(C1CCCN1C(=O)c1cccs1)N1CCc2ccccc21 (centres undefined) 22.4 µM [inhibitor, single point]
COc1ccc(-c2cc(=O)c(C(=O)c3ccc(C)cc3)n[nH]2)cc1 25.1 µM [inhibitor, partial curve]
Cc1nn(Cc2ccccc2)c(Cl)c1/C=C/C(=O)OC(C)C(=O)N1CCCC1 (centres undefined) 44.7 µM [inhibitor, single point]
COc1ccc(OC)c(NS(=O)(=O)Cc2ccccc2)c1 28.2 µM [inhibitor, single point]
Cc1ccc(NC(=O)c2cc(C)on2)cc1 39.8 µM [inhibitor, single point]
Cc1nnc2c(NC3CCCC3)nc3ccccc3n12 20 µM [inhibitor, partial curve]
CCCCC(=O)Nc1ccc2c3c(cccc13)CC2 39.8 µM [inhibitor, single point]
O=C(CSc1nc2ccccc2o1)N1N=C(c2cccs2)CC1c1ccc(F)cc1 (centres undefined) 28.2 µM [inhibitor, partial curve]

Potency, active:
O=C(CCc1c[nH]c2ccccc12)N1CCN(c2ccc(O)cc2)CC1 8.91 µM
O=C(OCn1nnc2ccccc2c1=O)C1CCCCC1 15.8 µM
O=C(C1CCN(S(=O)(=O)c2ccc(-n3cnnn3)cc2)CC1)N1CCN(c2ccccc2)CC1 28.2 µM
CN(C(=O)COc1ccc(S(=O)(=O)N2CCOCC2)cc1[N+](=O)[O-])C1CCS(=O)(=O)C1 (centres undefined) 12.6 µM
CC(=O)NCc1ccc(C(=O)CCl)s1 0.141 µM
CC(=O)c1cc(F)c(N2CCN(C(=O)C(C)(C)C)CC2)cc1C 15.8 µM
Cn1cnnc1SCC(=O)Nc1ccc2nc(SCc3cccc4ccccc34)sc2c1 14.1 µM
O=C(Nc1ccc(N2CCOCC2)cc1)c1ccc(S(=O)(=O)N2CCCCC2)cc1 0.112 µM
Cc1cc2n(n1)SC(Nc1ccc(F)cc1)N2 (centres undefined) 28.2 µM
Cc1cccc(N=N/C(=C\O)C(=O)c2cccs2)c1 8.91 µM
Cc1ccc(NC(=O)/C=C\C(=O)NCC(=O)O)cc1 28.2 µM
Nc1nc(-c2cccs2)c(NC(=O)c2ccccc2)s1 20 µM
O=C(NN=C1CCCCCC1)c1cn(-c2ccccc2)nc1-c1ccccc1 3.55 µM

activity, negative = inhibition, inactive:
COC(=O)N/N=C/c1ccc(-c2cc(Cl)ccc2Cl)o1 -3.1%
C=CCC(NCc1ccccc1)c1ccc(Cl)cc1 (centres undefined) 13.9%
CC(C)(C)OCC(NC(=O)C(CC(N)=O)NC(=O)OC(C)(C)C)C(=O)OC(C)(C)C (centres undefined) 13.3%
Cc1ccc(-n2c(=S)[nH]c3[nH]ncc3c2=O)cc1 1.22%
C=CCn1c(SCC)nc2sc3c(c2c1=O)CCc1ccccc1-3 14%
O=C(COC(=O)c1ccccc1C(=O)c1ccc(Cl)c([N+](=O)[O-])c1)NC1CC1 -3.63%
O=C1N=C(N2CCC(Cc3ccccc3)CC2)S/C1=C/c1cn[nH]c1-c1ccccc1 -8.07%
COc1ccc(-c2coc3ccc(OC4OC(COC(C)=O)C(OC(C)=O)C(OC(C)=O)C4OC(C)=O)c(OC(C)=O)c3c2=O)cc1 (centres undefined) 5.37%
COC(=O)N[C@H](c1ccccc1)C(C(C)=O)C(=O)OC (some centres undefined) 6.52%
